Assay results reported in US20230278972A1, “SUBSTITUTED HALOALKYL SULFONANILIDE HERBICIDES” (FMC Corporation, priority 2020, published 2023).

Assays:
Conditions in all cases: Flood, 250 g ai/ha; visual rating after 13 to 15 days; scale of 0 to 100 where 0 is no effect and 100 is complete control
[1] = test system: barnyardgrass (Echinochloa crus-galli); assay: Test B flooded paddy test, barnyardgrass
[2] = test system: ducksalad (Heteranthera limosa); assay: Test B flooded paddy test, ducksalad
rice (Oryza sativa) = assay: Test B flooded paddy test, rice
[3] = test system: sedge, umbrella (small-flower umbrella sedge, Cyperus difformis); assay: Test B flooded paddy test, sedge, umbrella

CO[C@@H]1CCCN(C(=O)c2cc(N(S(=O)(=O)C(F)(F)F)S(=O)(=O)C(F)(F)F)c(C)cc2C)C1 [Compound 95]
Plant response rating, Barnyardgrass [1]: 0
Plant response rating, Ducksalad [2]: 35
Plant response rating, Rice (rice (Oryza sativa)): 0
Plant response rating, Sedge, Umbrella [3]: 40

COC1CCCN(C(=O)c2cc(N(COC(C)=O)S(=O)(=O)C(F)(F)F)c(C)cc2C)C1 (centres unmarked) [Compound 96]
Plant response rating, Barnyardgrass [1]: 45
Plant response rating, Ducksalad [2]: 60
Plant response rating, Rice (rice (Oryza sativa)): 0
Plant response rating, Sedge, Umbrella [3]: 65

COC1CCCN(C(=O)c2cc(NS(=O)(=O)C(F)(F)F)c(C)c(F)c2C)C1 (centres unmarked) [Compound 98]
Plant response rating, Barnyardgrass [1]: 10
Plant response rating, Ducksalad [2]: 75
Plant response rating, Rice (rice (Oryza sativa)): 0
Plant response rating, Sedge, Umbrella [3]: 90

Cc1cc(C)c(N(S(=O)(=O)C(F)(F)F)S(=O)(=O)C(F)(F)F)cc1C1=NOC2CCCC12 (centres unmarked) [Compound 99]
Plant response rating, Barnyardgrass [1]: 65
Plant response rating, Ducksalad [2]: 80
Plant response rating, Rice (rice (Oryza sativa)): 15
Plant response rating, Sedge, Umbrella [3]: 95

COC1(OC)CCN(C(=O)c2cc(NS(=O)(=O)C(F)(F)F)c(C)cc2C)CC1 [Compound 101]
Plant response rating, Barnyardgrass [1]: 35
Plant response rating, Ducksalad [2]: 65
Plant response rating, Rice (rice (Oryza sativa)): 35
Plant response rating, Sedge, Umbrella [3]: 90

COCC1(COC)CC(c2cc(NS(=O)(=O)C(F)(F)F)c(C)cc2C)=NO1 [Compound 104]
Plant response rating, Barnyardgrass [1]: 0
Plant response rating, Ducksalad [2]: 35
Plant response rating, Rice (rice (Oryza sativa)): 0
Plant response rating, Sedge, Umbrella [3]: 75

Cc1cc(C)c(C(=O)N(C)CC2CC2)cc1NS(=O)(=O)C(F)(F)F [Compound 107]
Plant response rating, Barnyardgrass [1]: 0
Plant response rating, Ducksalad [2]: 30
Plant response rating, Rice (rice (Oryza sativa)): 0
Plant response rating, Sedge, Umbrella [3]: 85

Cc1cc(C)c(C2=NOC(C(C)(C)C)C2)cc1NS(=O)(=O)C(F)(F)F (centres unmarked) [Compound 108]
Plant response rating, Barnyardgrass [1]: 35
Plant response rating, Ducksalad [2]: 65
Plant response rating, Rice (rice (Oryza sativa)): 20
Plant response rating, Sedge, Umbrella [3]: 75

Cc1c(NS(=O)(=O)C(F)(F)F)cc(C(=O)N2CCC(F)CC2)c(C)c1F [Compound 109]
Plant response rating, Barnyardgrass [1]: 0
Plant response rating, Ducksalad [2]: 80
Plant response rating, Rice (rice (Oryza sativa)): 10
Plant response rating, Sedge, Umbrella [3]: 90

COC1CCN(C(=O)c2cc(NS(=O)(=O)C(F)(F)F)c(C)c(F)c2C)CC1 [Compound 110]
Plant response rating, Barnyardgrass [1]: 30
Plant response rating, Ducksalad [2]: 75
Plant response rating, Rice (rice (Oryza sativa)): 25
Plant response rating, Sedge, Umbrella [3]: 90

COC1CN(C(=O)c2cc(NS(=O)(=O)C(F)(F)F)c(C)cc2C)C1 [Compound 111]
Plant response rating, Barnyardgrass [1]: 60
Plant response rating, Ducksalad [2]: 65
Plant response rating, Rice (rice (Oryza sativa)): 30
Plant response rating, Sedge, Umbrella [3]: 80

Cc1cc(C)c(C(=O)N2COC(C)(C)C2)cc1NS(=O)(=O)C(F)(F)F [Compound 112]
Plant response rating, Barnyardgrass [1]: 35
Plant response rating, Ducksalad [2]: 50
Plant response rating, Rice (rice (Oryza sativa)): 60
Plant response rating, Sedge, Umbrella [3]: 65

COC1CCN(C(=O)c2cc(NS(=O)(=O)C(F)(F)F)c(C)cc2C)C1 (centres unmarked) [Compound 113]
Plant response rating, Barnyardgrass [1]: 0
Plant response rating, Ducksalad [2]: 55
Plant response rating, Rice (rice (Oryza sativa)): 15
Plant response rating, Sedge, Umbrella [3]: 65

Cc1cc(C)c(N(S(=O)(=O)C(F)(F)F)S(=O)(=O)C(F)(F)F)cc1C1=NOC2(CCSCC2)C1 [Compound 114]
Plant response rating, Barnyardgrass [1]: 0
Plant response rating, Ducksalad [2]: 0
Plant response rating, Rice (rice (Oryza sativa)): 0
Plant response rating, Sedge, Umbrella [3]: 0

COC(=O)N(c1cc(C(=O)N2CCCC(OC)C2)c(C)cc1C)S(=O)(=O)C(F)(F)F (centres unmarked) [Compound 115]
Plant response rating, Barnyardgrass [1]: 30
Plant response rating, Ducksalad [2]: 65
Plant response rating, Rice (rice (Oryza sativa)): 25
Plant response rating, Sedge, Umbrella [3]: 70

Cc1c(NS(=O)(=O)C(F)(F)F)cc(C(=O)N2CC(C)OC(C)C2)c(C)c1F (centres unmarked) [Compound 116]
Plant response rating, Barnyardgrass [1]: 0
Plant response rating, Ducksalad [2]: 90
Plant response rating, Rice (rice (Oryza sativa)): 0
Plant response rating, Sedge, Umbrella [3]: 95

Cc1cc(C)c(N(S(=O)(=O)C(F)(F)F)S(=O)(=O)C(F)(F)F)cc1C(=O)N1CCCC(F)C1 (centres unmarked) [Compound 118]
Plant response rating, Barnyardgrass [1]: 35
Plant response rating, Ducksalad [2]: 50
Plant response rating, Rice (rice (Oryza sativa)): 0
Plant response rating, Sedge, Umbrella [3]: 55

COC1CCCN(C(=O)c2cc(N(S(=O)(=O)C(F)(F)F)S(=O)(=O)C(F)(F)F)c(C)cc2C)C1 (centres unmarked) [Compound 119]
Plant response rating, Barnyardgrass [1]: 35
Plant response rating, Ducksalad [2]: 75
Plant response rating, Rice (rice (Oryza sativa)): 15
Plant response rating, Sedge, Umbrella [3]: 75

Cc1cc(C)c(C2=NOC3(C2)CC(C)(C)CC(C)(C)C3)cc1NS(=O)(=O)C(F)(F)F [Compound 122]
Plant response rating, Barnyardgrass [1]: 0
Plant response rating, Ducksalad [2]: 0
Plant response rating, Rice (rice (Oryza sativa)): 0
Plant response rating, Sedge, Umbrella [3]: 0

Cc1cc(C)c(C2=NOC3CCCCC23)cc1NS(=O)(=O)C(F)(F)F (centres unmarked) [Compound 123]
Plant response rating, Barnyardgrass [1]: 35
Plant response rating, Ducksalad [2]: 40
Plant response rating, Rice (rice (Oryza sativa)): 20
Plant response rating, Sedge, Umbrella [3]: 90

Cc1cc(C#N)c(C(=O)N2CCCCC2)cc1NS(=O)(=O)C(F)(F)F [Compound 126]
Plant response rating, Barnyardgrass [1]: 0
Plant response rating, Ducksalad [2]: 45
Plant response rating, Rice (rice (Oryza sativa)): 0
Plant response rating, Sedge, Umbrella [3]: 80

Cc1cc(C)c(N(S(=O)(=O)C(F)(F)F)S(=O)(=O)C(F)(F)F)cc1C1=NOC(C(C)(C)C)C1 (centres unmarked) [Compound 127]
Plant response rating, Barnyardgrass [1]: 25
Plant response rating, Ducksalad [2]: 45
Plant response rating, Rice (rice (Oryza sativa)): 10
Plant response rating, Sedge, Umbrella [3]: 90

Cc1c(NS(=O)(=O)C(F)(F)F)cc(C(=O)N2CCC3(CC2)OCCCO3)c(C)c1F [Compound 129]
Plant response rating, Barnyardgrass [1]: 0
Plant response rating, Ducksalad [2]: 0
Plant response rating, Rice (rice (Oryza sativa)): 0
Plant response rating, Sedge, Umbrella [3]: 75

Cc1cc(C)c(C2=NOC3CCCCC23)cc1NS(=O)(=O)C(F)(F)F (centres unmarked) [Compound 131]
Plant response rating, Barnyardgrass [1]: 85
Plant response rating, Ducksalad [2]: 50
Plant response rating, Rice (rice (Oryza sativa)): 0
Plant response rating, Sedge, Umbrella [3]: 90

Cc1cc(C(F)(F)F)c(NS(=O)(=O)C(F)(F)F)cc1C(=O)N(C)C [Compound 132]
Plant response rating, Barnyardgrass [1]: 0
Plant response rating, Ducksalad [2]: 45
Plant response rating, Rice (rice (Oryza sativa)): 30
Plant response rating, Sedge, Umbrella [3]: 80

Cc1cc(C(F)(F)F)c(C(=O)N(C)C)cc1NS(=O)(=O)C(F)(F)F [Compound 133]
Plant response rating, Barnyardgrass [1]: 15
Plant response rating, Ducksalad [2]: 35
Plant response rating, Rice (rice (Oryza sativa)): 45
Plant response rating, Sedge, Umbrella [3]: 95

Cc1cc(C#N)c(C(=O)N(C)C)cc1NS(=O)(=O)C(F)(F)F [Compound 134]
Plant response rating, Barnyardgrass [1]: 0
Plant response rating, Ducksalad [2]: 0
Plant response rating, Rice (rice (Oryza sativa)): 0
Plant response rating, Sedge, Umbrella [3]: 45

Cc1cc(C)c(C2=NOC3(CCC4(CC3)OCCO4)C2)cc1NS(=O)(=O)C(F)(F)F [Compound 135]
Plant response rating, Barnyardgrass [1]: 30
Plant response rating, Ducksalad [2]: 85
Plant response rating, Rice (rice (Oryza sativa)): 10
Plant response rating, Sedge, Umbrella [3]: 75

Cc1cc(C)c(N(S(=O)(=O)C(F)(F)F)S(=O)(=O)C(F)(F)F)cc1C1=NOC2(CCC3(CC2)OCCO3)C1 [Compound 136]
Plant response rating, Barnyardgrass [1]: 10
Plant response rating, Ducksalad [2]: 60
Plant response rating, Rice (rice (Oryza sativa)): 20
Plant response rating, Sedge, Umbrella [3]: 80

COC1CCCN(C(=O)c2cc(NS(=O)(=O)C(F)(F)F)c(C)cc2C)CC1 (centres unmarked) [Compound 137]
Plant response rating, Barnyardgrass [1]: 35
Plant response rating, Ducksalad [2]: 50
Plant response rating, Rice (rice (Oryza sativa)): 40
Plant response rating, Sedge, Umbrella [3]: 75

Cc1cc(C)c(N(S(=O)(=O)C(F)(F)F)S(=O)(=O)C(F)(F)F)cc1C1=NOC2(CCC(C)(C)CC2)C1 [Compound 139]
Plant response rating, Barnyardgrass [1]: 0
Plant response rating, Ducksalad [2]: 0
Plant response rating, Rice (rice (Oryza sativa)): 0
Plant response rating, Sedge, Umbrella [3]: 0

CCCCC(=O)OCN(c1cc(C2=NOC3(CCCC3)C2)c(C)cc1C)S(=O)(=O)C(F)(F)F [Compound 143]
Plant response rating, Barnyardgrass [1]: 95
Plant response rating, Ducksalad [2]: 35
Plant response rating, Rice (rice (Oryza sativa)): 0
Plant response rating, Sedge, Umbrella [3]: 95

CCC(=O)OCN(c1cc(C2=NOC3(CCCC3)C2)c(C)cc1C)S(=O)(=O)C(F)(F)F [Compound 144]
Plant response rating, Barnyardgrass [1]: 90
Plant response rating, Ducksalad [2]: 35
Plant response rating, Rice (rice (Oryza sativa)): 15
Plant response rating, Sedge, Umbrella [3]: 80

COC1CCCN(C(=O)c2cc(NS(=O)(=O)C(F)(F)F)c(Cl)cc2C)C1 (centres unmarked) [Compound 146]
Plant response rating, Barnyardgrass [1]: 0
Plant response rating, Ducksalad [2]: 85
Plant response rating, Rice (rice (Oryza sativa)): 0
Plant response rating, Sedge, Umbrella [3]: 85

C#CCN(C)C(=O)c1cc(N(S(=O)(=O)C(F)(F)F)S(=O)(=O)C(F)(F)F)c(C)c(F)c1C [Compound 147]
Plant response rating, Barnyardgrass [1]: 0
Plant response rating, Ducksalad [2]: 65
Plant response rating, Rice (rice (Oryza sativa)): 0
Plant response rating, Sedge, Umbrella [3]: 80

Cc1cc(C)c(N(COC(=O)C2CCCCC2)S(=O)(=O)C(F)(F)F)cc1C1=NOC2(CCCC2)C1 [Compound 148]
Plant response rating, Barnyardgrass [1]: 0
Plant response rating, Ducksalad [2]: 0
Plant response rating, Rice (rice (Oryza sativa)): 0
Plant response rating, Sedge, Umbrella [3]: 0

Cc1cc(C)c(N(COC(=O)c2ccccc2)S(=O)(=O)C(F)(F)F)cc1C1=NOC2(CCCC2)C1 [Compound 149]
Plant response rating, Barnyardgrass [1]: 95
Plant response rating, Ducksalad [2]: 25
Plant response rating, Rice (rice (Oryza sativa)): 0
Plant response rating, Sedge, Umbrella [3]: 65

Cc1cc(C)c(N(COC(=O)C2CCCC2)S(=O)(=O)C(F)(F)F)cc1C1=NOC2(CCCC2)C1 [Compound 150]
Plant response rating, Barnyardgrass [1]: 95
Plant response rating, Ducksalad [2]: 30
Plant response rating, Rice (rice (Oryza sativa)): 0
Plant response rating, Sedge, Umbrella [3]: 80
